Measurements: the supplement of paper PMC7826260
This is one part of the list. One pool of 16,384 single-stranded DNAs met each Rep nickase domain in vitro at 3 µM enzyme and 37 °C for 1 h; the strands have 90 letters, of which the middle is given. The score is log2 (uncut reads / reads without enzyme); uncut sequences lie near 0, cut ones below; no hit call is given. Reads are scaled to the total, so uncut sequences can rise above 0 when many others are cut.

Columns and labels:
Assay in all cases: uncleaved DNA left, log2 of reads against the no-enzyme library (log2 ratio); higher = less cleavage (more negative = more Rep cleavage of the k-mer); sequences stand for … in CTCGTCCG…ACCGGAGA
[1] = test system: T1, Rep nickase domain of Muscovy duck circovirus
T1 sequence (Rep 1-111, printed without the tag): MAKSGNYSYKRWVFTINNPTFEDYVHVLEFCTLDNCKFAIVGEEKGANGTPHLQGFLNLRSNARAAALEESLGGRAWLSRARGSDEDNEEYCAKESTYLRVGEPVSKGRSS
Protocol: (§1)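 A pool of 90-nt single-stranded DNAs with seven random bases just before the constant AC of the nick site (name = the seven bases) was cut by 3 µM recombinant His6-SUMO-tagged Rep nickase domain (300 nM DNA, 50 mM HEPES pH 8.0, 50 mM NaCl, 1 mM MnCl2, 1 h, 37 °C, three replicates). Uncut DNA was amplified and sequenced.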

[2] = test system: T2, Rep nickase domain of banana bunchy top virus
T2 sequence (Rep 1-94, printed without the tag): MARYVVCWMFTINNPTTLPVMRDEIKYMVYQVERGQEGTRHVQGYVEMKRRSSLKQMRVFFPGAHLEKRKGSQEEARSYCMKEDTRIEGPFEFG
Protocol: as §1

[3] = test system: T3, Rep nickase domain of cabbage leaf curl virus
T3 sequence (Rep 1-116, printed without the tag): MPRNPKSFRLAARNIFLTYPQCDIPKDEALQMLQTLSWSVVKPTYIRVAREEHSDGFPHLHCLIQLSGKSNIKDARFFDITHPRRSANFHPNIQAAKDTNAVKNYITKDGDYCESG
Protocol: as §1

[4] = test system: T4, Rep nickase domain of chickpea chlorotic dwarf virus
T4 sequence (Rep 1-124, printed without the tag): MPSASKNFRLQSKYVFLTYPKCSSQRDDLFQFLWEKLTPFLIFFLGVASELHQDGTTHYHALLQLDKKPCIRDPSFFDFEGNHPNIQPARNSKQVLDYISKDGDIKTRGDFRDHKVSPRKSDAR
Protocol: as §1

[5] = test system: T5, Rep nickase domain of faba bean necrotic yellows virus
T5 sequence (Rep 1-98, printed without the tag): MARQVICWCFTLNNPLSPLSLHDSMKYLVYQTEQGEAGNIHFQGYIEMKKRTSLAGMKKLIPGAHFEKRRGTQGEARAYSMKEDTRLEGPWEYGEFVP
Protocol: as §1

[6] = test system: T6, Rep nickase domain of maize striate mosaic virus
T6 sequence (Rep 1-117, printed without the tag): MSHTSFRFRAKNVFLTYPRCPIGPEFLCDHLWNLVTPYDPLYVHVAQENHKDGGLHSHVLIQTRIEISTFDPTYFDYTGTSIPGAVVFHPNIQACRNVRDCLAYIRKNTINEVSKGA
Protocol: as §1

[7] = test system: T7, Rep nickase domain of porcine circovirus 2
T7 sequence (Rep 2-116, printed without the tag): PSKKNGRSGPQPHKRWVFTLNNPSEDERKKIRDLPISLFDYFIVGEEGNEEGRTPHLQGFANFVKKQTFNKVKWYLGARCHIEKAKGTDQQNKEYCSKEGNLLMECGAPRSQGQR
Protocol: as §1

[8] = test system: T8, Rep nickase domain of tomato golden mosaic virus
T8 sequence (Rep 1-124, printed without the tag): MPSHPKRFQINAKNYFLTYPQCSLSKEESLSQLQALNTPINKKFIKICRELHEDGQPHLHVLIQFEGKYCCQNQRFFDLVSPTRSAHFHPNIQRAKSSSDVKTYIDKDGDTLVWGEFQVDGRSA
Protocol: as §1

[9] = test system: T9, Rep nickase domain of tomato yellow leaf curl virus
T9 sequence (Rep 1-136, printed without the tag): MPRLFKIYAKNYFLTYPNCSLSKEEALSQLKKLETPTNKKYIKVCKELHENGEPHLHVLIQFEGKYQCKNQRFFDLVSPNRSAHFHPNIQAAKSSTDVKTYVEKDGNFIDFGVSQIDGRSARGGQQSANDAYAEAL
Protocol: as §1

[10] = test system: T10, Rep nickase domain of wheat dwarf virus
T10 sequence (Rep 1-137, printed without the tag): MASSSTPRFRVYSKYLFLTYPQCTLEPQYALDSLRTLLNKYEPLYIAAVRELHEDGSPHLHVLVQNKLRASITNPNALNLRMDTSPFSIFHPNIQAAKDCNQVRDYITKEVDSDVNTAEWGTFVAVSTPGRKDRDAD
Protocol: as §1

Sequence | uncleaved DNA left (log2) [1] | uncleaved DNA left (log2) [2] | uncleaved DNA left (log2) [3] | uncleaved DNA left (log2) [4] | uncleaved DNA left (log2) [5] | uncleaved DNA left (log2) [6] | uncleaved DNA left (log2) [7] | uncleaved DNA left (log2) [8] | uncleaved DNA left (log2) [9] | uncleaved DNA left (log2) [10]
AGGCTAG | 0.0146 | 0.00826 | -0.26 | -0.221 | 0.117 | -0.66 | 0.109 | 0.0735 | -0.0565 | 0.0105
TCCCCAG | -0.184 | -0.175 | -0.526 | -0.889 | -0.203 | -1.05 | -0.143 | -0.0661 | -0.117 | -0.113
GGGCACC | -0.0576 | 0.0408 | 0.69 | 1.84 | -0.0485 | 2.14 | 0.158 | -0.00214 | 0.103 | 0.168
CAAATAT | 0.0659 | -0.0925 | -2.26 | -2.63 | 0.0987 | -1.16 | -0.381 | -0.213 | -0.0405 | -0.818
CAGATTA | -0.177 | -0.113 | -0.301 | -2.25 | -0.0666 | -0.531 | -1.48 | -0.0341 | -0.0589 | -0.165
ATCCGGC | -0.131 | -0.241 | -0.181 | -0.151 | -0.0719 | -0.773 | 0.114 | -0.192 | -0.123 | -0.112
TGCTCCC | -0.147 | -0.00166 | 0.221 | 0.102 | -0.153 | 0.486 | -0.15 | -0.119 | -0.0601 | -0.0421
GAGGACG | -0.0789 | 0.0109 | 0.328 | 1.06 | -0.00899 | 0.617 | 0.126 | 0.0405 | 0.0741 | 0.0601
CGCTTCA | -0.117 | -0.118 | -0.215 | -1.13 | -0.0599 | -0.678 | -0.192 | -0.108 | 0.0183 | -0.0519
TCCTTTG | -0.036 | 0.0306 | -0.393 | -0.733 | 0.0985 | -1.14 | 0.158 | -0.0269 | 0.0806 | 0.0223
ATCAATG | 0.027 | -0.0169 | -0.623 | -0.513 | -0.0449 | -1.16 | 0.0223 | 0.0542 | 0.0228 | -0.0732
AAAACAA | 0.0424 | 0.0988 | -0.0291 | -0.783 | 0.119 | -0.59 | 0.124 | 0.00897 | 0.0523 | 0.144
GATAGCA | -0.0341 | -0.0128 | -0.053 | 0.132 | -0.0398 | -0.0604 | -0.0104 | -0.0709 | -0.0833 | 0.00819
AGCTATT | -3.49 | -1.54 | -2.42 | -2.59 | -0.245 | 0.301 | -3.79 | -0.507 | -0.0119 | -2.23
AAGAGTT | 0.132 | -0.0505 | 0.196 | 0.471 | -0.0492 | 1.45 | -3.08 | 0.152 | -0.0696 | 0.128
TGGCAAC | -0.0619 | 0.105 | 0.409 | 0.903 | -0.0977 | 1.62 | 0.128 | -0.0287 | 0.0932 | 0.188

Sequence | uncleaved DNA left (log2) [1] | uncleaved DNA left (log2) [2] | uncleaved DNA left (log2) [3] | uncleaved DNA left (log2) [4] | uncleaved DNA left (log2) [5] | uncleaved DNA left (log2) [6] | uncleaved DNA left (log2) [7] | uncleaved DNA left (log2) [8] | uncleaved DNA left (log2) [9] | uncleaved DNA left (log2) [10]
CAATAGG | -0.0642 | -0.0025 | -0.113 | 0.445 | -0.0727 | -0.323 | -0.0162 | 0.0566 | -0.147 | 0.0108
GATGAGG | 0.129 | 0.0644 | 0.418 | 1.08 | 0.0658 | 1.02 | 0.111 | 0.13 | -0.0664 | 0.144
GGTAACG | 0.148 | 0.0235 | -0.44 | -0.344 | 0.0657 | -0.419 | 0.182 | -0.0747 | 0.0294 | -0.000201
CAATACC | -0.0758 | 0.0137 | -2.99 | -2.91 | -0.0373 | -1.36 | -0.857 | -0.762 | -0.0821 | -0.672
TATGGTT | 0.0966 | -0.126 | -2.12 | -1.96 | -0.0452 | 1.19 | -0.365 | -0.132 | -0.068 | -0.0344
TTTTGTG | 0.00449 | -0.0924 | -0.621 | 0.0853 | 0.0897 | -0.934 | 0.196 | -0.0597 | 0.0776 | -0.14
TAGCAGC | 0.0597 | -0.0357 | -0.382 | -0.514 | -0.0811 | -1.04 | 0.0217 | -0.149 | -0.0847 | -0.11
GTTGTTT | -0.0159 | -0.00892 | 0.307 | 0.73 | -0.0306 | 1.59 | 0.0271 | 0.112 | 0.0979 | -0.0478
ACAGAAT | 0.00799 | -0.038 | -0.0707 | -0.483 | 0.114 | -0.284 | 0.0985 | 0.136 | -0.296 | -0.0347
CACCCAG | 0.132 | 0.0395 | -0.71 | -0.371 | 0.059 | -0.978 | -0.26 | 0.124 | 0.0893 | 0.0148
GTGTCCT | -0.0868 | -0.0292 | 0.305 | 0.784 | 0.00244 | 1.76 | -0.419 | -0.0272 | 0.0165 | 0.0809
TTTAAAG | -0.0504 | -0.211 | -0.819 | -0.61 | -0.0271 | -1.21 | 0.111 | -0.0293 | -0.066 | -0.0608
GTCCTGT | 0.147 | 0.329 | 0.486 | 0.875 | 0.145 | 1.94 | 0.156 | 0.262 | 0.223 | 0.228
ATATACG | -0.0118 | -0.0127 | -0.855 | 0.101 | 0.0707 | -1.01 | 0.219 | 0.0497 | 0.0496 | -0.0713
CGATAGG | 0.157 | 0.14 | -0.0438 | 0.595 | 0.15 | 0.375 | 0.0562 | 0.16 | 0.0725 | -0.0441
